Assay results from the supplement of paper PMC3334620.
In all, about 33,000 sequences were measured (“E-score (-0.5 to 0.5)”: median about -0.043, highest 2% from about 0.37 on). The list shows a part of the results.

The sequences below were run against T1, Upc2 (UniProt Q12151) (assay: PBM E-score (8-mer binding enrichment) (E-score (-0.5 to 0.5)); higher = stronger / more preferred TF binding; most listed sequences are background and not binding sites). Details: protein concentration: 200 nM; construct: GST-full length.
T1 sequence: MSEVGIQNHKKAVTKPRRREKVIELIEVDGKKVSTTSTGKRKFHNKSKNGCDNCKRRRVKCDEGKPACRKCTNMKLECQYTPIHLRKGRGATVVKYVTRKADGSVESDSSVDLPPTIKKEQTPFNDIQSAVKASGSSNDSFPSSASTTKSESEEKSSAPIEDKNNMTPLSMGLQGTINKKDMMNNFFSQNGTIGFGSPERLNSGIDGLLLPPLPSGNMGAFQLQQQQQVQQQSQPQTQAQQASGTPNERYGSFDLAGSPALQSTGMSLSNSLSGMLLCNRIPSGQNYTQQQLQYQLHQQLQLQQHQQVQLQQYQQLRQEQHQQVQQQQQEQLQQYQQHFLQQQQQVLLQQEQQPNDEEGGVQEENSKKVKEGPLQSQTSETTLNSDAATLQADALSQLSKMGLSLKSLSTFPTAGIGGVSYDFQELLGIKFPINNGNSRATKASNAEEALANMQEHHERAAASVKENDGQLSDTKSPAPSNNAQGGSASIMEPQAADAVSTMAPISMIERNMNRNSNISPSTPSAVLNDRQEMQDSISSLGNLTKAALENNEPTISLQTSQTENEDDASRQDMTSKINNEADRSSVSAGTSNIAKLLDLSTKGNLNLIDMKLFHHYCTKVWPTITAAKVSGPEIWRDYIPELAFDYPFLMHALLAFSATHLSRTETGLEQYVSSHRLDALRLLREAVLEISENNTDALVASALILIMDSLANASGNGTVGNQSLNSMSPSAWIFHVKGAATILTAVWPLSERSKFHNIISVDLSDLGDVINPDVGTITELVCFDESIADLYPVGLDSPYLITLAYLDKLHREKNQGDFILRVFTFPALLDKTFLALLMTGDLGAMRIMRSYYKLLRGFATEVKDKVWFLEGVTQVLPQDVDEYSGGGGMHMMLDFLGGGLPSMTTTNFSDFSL
In short: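 PURExpress in vitro transcription/translation supplied GST-tagged yeast transcription factors, either full-length or DNA-binding domain. Applied at about 100-200 nM to universal all-10-mer Agilent arrays double-stranded by primer extension, the bound protein was detected with fluorescent anti-GST. E-scores, modified Wilcoxon-Mann-Whitney statistics, were given by the Universal PBM Analysis Suite to ungapped eight-base words pooled with their reverse complements after masliner normalisation.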

In order of rising “PBM E-score” value:
1. ACTGTTGG  -0.326
2. CTTCGTCC  -0.316
3. CTGACAAC  -0.303
4. CATAGATC  -0.269
5. GGCCTCCA  -0.269
6. GGAAGGCA  -0.267
7. GCCCCCGA  -0.262
8. CTACTCCC  -0.242
9. AAGGTGCC  -0.228
10. ATTTCTCC  -0.224
11. GGACTACA  -0.219
12. AACTTTCT  -0.202
13. AGGGGATA  -0.201
14. GGACGGCA  -0.194
15. CACTCCCA  -0.193
16. GTGTGACA  -0.186
17. GGAGCACC  -0.18
18. CTTGGGAC  -0.167
19. TAATAGCA  -0.144
20. AAGCTGAA  -0.133
21. AGTATGGC  -0.129
22. ACTTGCCG  -0.121
23. AACCATCT  -0.12
24. ATCAGGAC  -0.115
25. CGTGGCCA  -0.113
26. TCTTGTCA  -0.108
27. CGCATGAG  -0.107
28. AGAGTCTC  -0.0957
29. AATGCAGA  -0.0923
30. TGGTGTAA  -0.0753
31. ATCGCCGC  -0.0746
32. AGTTTAGG  -0.0592
33. ACCGATCT  -0.0555
34. CCTTAACA  -0.0468
35. CCGACAGC  -0.0399
36. AGGTTTCG  -0.0395
37. CGATGAAG  -0.0196
38. AGGTGTAT  -0.0191
39. CCGCAATC  -0.0127
40. GCCAACGC  -0.0104
41. CTGCAGCC  -0.00681
42. ATGATATA  -0.00615
43. ATAGCACA  -9e-05
44. ATTACAAT  0.00976
45. AACTAAAA  0.0173
46. AAGTCTGT  0.0265
47. GACCGCCC  0.0325
48. CGATAATA  0.0334
49. GCTGATAA  0.0387
50. GTCCGCGA  0.0436
51. AATGCGCC  0.0488
52. AGACGAAT  0.0524
53. CCCCTCGC  0.0535
54. ATTTAGTG  0.0656
55. AACGTCCG  0.0706
56. ATCGAGTG  0.0718
57. GAGAATGA  0.0733
58. CGGGTTGC  0.0793
59. CCATTTTA  0.0796
60. CACGATGC  0.0841
61. ACGGCTTC  0.107
62. GATCACTA  0.113
63. CGGATCGC  0.115
64. ATACAAAT  0.117
65. AAGCATCG  0.122
66. ATTCGTCG  0.126
67. ATTTCTTA  0.132
68. GTTGATAA  0.136
69. GAGCGGTA  0.143
70. CGGAAAAC  0.163
71. ATAGTAGC  0.164
72. ATCTTCCG  0.168
73. ATGGGTAC  0.171
74. CGACCACG  0.176
75. ACAAAAGA  0.188
76. TAAAGCGA  0.191
77. AAACTACG  0.212
78. CGTTCGAA  0.221
79. ACCGTTTC  0.244
80. TAAATTTA  0.262
81. AAATAAAC  0.284
82. CTACCGTA  0.301
83. ACGGTTAC  0.313
84. AACGTATA  0.443
85. CGTAAACG  0.473
86. ATACGAAG  0.476
